Source: the supplement of paper PMC11060735
Where “and” joins values, the source holds several entries; their conditions need not be identical. Equal values may be shown once. Where a name gives a salt, the structure may show the parent alone. Out of some 1,800 compounds screened, about 50 (3%) showed activity. The list shows a part of the results.
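Further: fibroblasts sorted 14 days after bleomycin, GFP+ and GFP− mixed 1:1 in 384-well plates (GFP− as in-well control), imaged after Hoechst and NucView530 staining, reference wells lacked compound.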

Each compound was assayed on mouse p16Ink4a+/- lung fibroblasts (INKBRITE, bleomycin-injured) (assay: percentage of GFP+ (p16Ink4a+) fibroblasts among all cells in well; higher = less depletion of p16Ink4a+ cells, active = 20 or less). Details: 1 µM; 3 days.
For Cc1c(-c2ccc(O)cc2)n(Cc2ccc(OCCN3CCCCCC3)cc2)c2ccc(O)cc12 [Bazedoxifene], the “percentage of GFP+” value was inactive: 47.1%.
In the case of COC(=O)[C@]12CCC(C)(C)C[C@@H]1[C@@H]1C(=O)C=C3[C@]4(C)C=C(C#N)C(=O)C(C)(C)[C@@H]4CC[C@@]3(C)[C@]1(C)CC2 [Bardoxolone Methyl], the “percentage of GFP+” value is reported as active: 5.23%.
With C#C[C@]1(OC(C)=O)CC[C@H]2[C@@H]3CCC4=C[C@@H](OC(C)=O)CC[C@@H]4[C@H]3CC[C@@]21C [Ethynodiol Diacetate] the “percentage of GFP+” value was inactive: 52.1%.
In the case of CC(C)(C)c1ccc(-c2nc3ccccc3[nH]2)cc1, the “percentage of GFP+” value is reported as inactive: 38.6%.
In the case of NC(=O)[C@@H](CCC(F)(F)F)N(Cc1ccc(-c2ncon2)cc1F)S(=O)(=O)c1ccc(Cl)cc1 [Avagacestat], the “percentage of GFP+” value is reported as inactive: 49.9%.
For COC(=O)[C@H]1[C@H]2C[C@@H]3c4[nH]c5cc(OC)ccc5c4CCN3C[C@H]2C[C@@H](OC(=O)c2cc(OC)c(OC)c(OC)c2)[C@@H]1OC [Reserpine], the “percentage of GFP+” value was inactive: 36.2%.
With Cc1ccc(C(=O)Nc2cccc(C(F)(F)F)c2)cc1Nc1nc(-c2cccnc2)nc2c1cnn2C the “percentage of GFP+” value was inactive: 37.9%.
For O=C1[C@H](CC[C@H](O)c2ccc(F)cc2)[C@@H](c2ccc(O)cc2)N1c1ccc(F)cc1 [Ezetimibe], the “percentage of GFP+” value was inactive: 41.4%.
CC(C)OC(=O)C(C)(C)Oc1ccc(C(=O)c2ccc(Cl)cc2)cc1 [Fenofibrate] was tested, and the “percentage of GFP+” value was inactive: 45.5%.
For COc1cc(C2Oc3ccc(C4Oc5cc(O)cc(O)c5C(=O)C4O)cc3OC2CO)ccc1O (centres undefined) [Silymarin], the “percentage of GFP+” value was inactive: 46.3%.
In the case of Oc1c(Cl)cc(Cl)c2cccnc12 [Chloroxine], the “percentage of GFP+” value is reported as inactive: 38.3%.
In the case of O=C(O)CCNC(=O)c1ccccc1 [Betamipron], the “percentage of GFP+” value is reported as inactive: 46%.
COc1cc([C@@H]2c3cc4c(cc3[C@@H](O[C@@H]3O[C@@H]5CO[C@@H](C)O[C@H]5[C@H](O)[C@H]3O)[C@H]3COC(=O)[C@H]23)OCO4)cc(OC)c1O [Etoposide] was tested, and the “percentage of GFP+” value was active: 19.3%.
In the case of Cn1cnc([N+](=O)[O-])c1Sc1ncnc2[nH]cnc12 [Azathioprine], the “percentage of GFP+” value is reported as inactive: 43.6%.
In the case of COC(=O)[C@H](Cc1ccccc1)NC(=O)[C@@H](N)CC(=O)O [Aspartame], the “percentage of GFP+” value is reported as inactive: 44.2%.
With CCNC(=O)c1noc(-c2cc(C(C)C)c(O)cc2O)c1-c1ccc(CN2CCOCC2)cc1 [Luminespib (NVP-AUY922)] the “percentage of GFP+” value was active: 6.33%.
With Cc1cc(C(C)Nc2ccccc2)c2nc(N3CCOCC3)cc(=O)n2c1 (centres undefined) the “percentage of GFP+” value was inactive: 48.7%.
In the case of CO/N=C(/C(=O)N[C@@H]1C(=O)N2C(C(=O)O)=C(CSC(=O)c3ccco3)CS[C@H]12)c1csc(N)n1 [Ceftiofur HCl], the “percentage of GFP+” value is reported as inactive: 39.5%.
In the case of O=NN(CCCl)C(=O)NC1CCCCC1 [Lomustine], the “percentage of GFP+” value is reported as inactive: 40.6%.
In the case of O=C(Nc1ccc(-c2ccnc(Nc3ccc(N4CCOCC4)cc3)n2)cc1)[C@@H]1CCCN1, the “percentage of GFP+” value is reported as inactive: 42.6%.
In the case of c1coc(CNc2ncnc3[nH]cnc23)c1 [Kinetin], the “percentage of GFP+” value is reported as inactive: 41.6%.
Oc1ccc(-c2nc(-c3ccc(F)cc3)c(-c3ccncc3)[nH]2)cc1 was tested, and the “percentage of GFP+” value was inactive: 44.2%.
In the case of CCC(C)(Oc1ccc(C2(c3ccc(OC(C)(CC)C(=O)O)cc3)CCCCC2)cc1)C(=O)O (centres undefined) [Clinofibrate], the “percentage of GFP+” value is reported as inactive: 52.6%.
With C=CC(=O)Nc1ccc2ncnc(Nc3cccc(Br)c3)c2c1 the “percentage of GFP+” value was inactive: 43.9%.
NC(=O)Nc1cc(-c2cccc(F)c2)sc1C(=O)N[C@H]1CCCNC1 was tested, and the “percentage of GFP+” value was inactive: 24%.
In the case of CN1CCN(S(=O)(=O)c2ccc(-c3cnc(N)c(C(=O)Nc4cccnc4)n3)cc2)CC1, the “percentage of GFP+” value is reported as inactive: 24%.
With O=C(Nc1ccccc1)N1CCN(c2nc(-c3ccccc3)ns2)CC1 the “percentage of GFP+” value was inactive: 52%.
In the case of O=C(NCCN1CCOCC1)c1ccc(Cl)cc1 [Moclobemide], the “percentage of GFP+” value is reported as inactive: 49.7%.
With C=CC(=O)Nc1cccc(Nc2nc(Nc3ccc(Oc4ccnc(C(=O)NC)c4)cc3)ncc2F)c1 the “percentage of GFP+” value was inactive: 46.4%.
In the case of NC[C@H](O)c1ccc(O)c(O)c1 [Norepinephrine], the “percentage of GFP+” value is reported as inactive: 31.9%.
For COCCCN1CCC(NC(=O)c2cc(Cl)c(N)c3c2OCC3)CC1 [Prucalopride], the “percentage of GFP+” value was inactive: 46.2% and inactive: 35.5%.
In the case of COc1ccc(-c2nc(N3CCOCC3)c3sc(CN(C)c4ncc(C(=O)NO)cn4)cc3n2)cn1 [Fimepinostat], the “percentage of GFP+” value is reported as active: 3.62%.
CCOC(=O)[C@H](CCc1ccccc1)N[C@H]1CCc2ccccc2N(CC(=O)O)C1=O [Benazepril] was tested, and the “percentage of GFP+” value was inactive: 48.5%.
For CC(C)(C)c1cc(C(C)(C)C)c(NC(=O)c2cnc3ccccc3c2O)cc1O [Ivacaftor], the “percentage of GFP+” value was inactive: 38%.
For CCOc1ccccc1O[C@H](c1ccccc1)[C@H]1CNCCO1 [Reboxetine], the “percentage of GFP+” value was inactive: 42.5%.
In the case of COc1ccc(-n2nc(C(N)=O)c3c2C(=O)N(c2ccc(N4CCCCC4=O)cc2)CC3)cc1 [Apixaban], the “percentage of GFP+” value is reported as inactive: 47.6%.
Nc1nc(OCc2cc(Br)cs2)c2[nH]cnc2n1 [Lomeguatrib] was tested, and the “percentage of GFP+” value was inactive: 42.4%.
In the case of CC1(C)CCC2=C(O1)c1ccccc1C(=O)C2=O [beta-Lapachone], the “percentage of GFP+” value is reported as inactive: 49.7%.
In the case of Nc1nc(O)c2ncn(COCCO)c2n1 [Aciclovir], the “percentage of GFP+” value is reported as inactive: 45.4%.
With Cc1ccc(=O)n(-c2ccccc2)c1 [Pirfenidone] the “percentage of GFP+” value was inactive: 46%.
With CCc1cccc(CC)c1NC(=O)N1Cc2[nH]nc(NC(=O)c3ccc(N4CCN(C)CC4)cc3)c2C1 the “percentage of GFP+” value was inactive: 39.6%.
COc1cc(NC(=O)c2ccc(-c3ccc(Cl)cc3)o2)cc(OC)c1 was tested, and the “percentage of GFP+” value was inactive: 52%.
In the case of Nc1ccn([C@@H]2O[C@H](CO)[C@@H](O)[C@H]2O)c(=O)n1 [Cytidine], the “percentage of GFP+” value is reported as inactive: 48.9%.
CC1Cc2ccccc2N1NC(=O)c1ccc(Cl)c(S(N)(=O)=O)c1 (centres undefined) [Indapamide] was tested, and the “percentage of GFP+” value was inactive: 45.4%.
O=C(O)P(=O)(O)O [Foscarnet] was tested, and the “percentage of GFP+” value was inactive: 45.3%.
In the case of FC(F)(F)c1ccc(/C=C/c2nc(COc3ccc(CCCCn4ccnn4)cc3)co2)cc1 [Mubritinib], the “percentage of GFP+” value is reported as inactive: 39.2%.
In the case of Cc1ccc(S(=O)(=O)Cc2nc(-c3ccc(C(=O)NCc4cccnc4)cc3)oc2C)cc1, the “percentage of GFP+” value is reported as inactive: 23.2%.
With COc1cc(NC(=O)c2ccccn2)ccc1Cl the “percentage of GFP+” value was inactive: 40.1%.
In the case of CC(C)(CO)[C@@H](O)C(=O)NCCC(=O)O [Pantothenic Acid], the “percentage of GFP+” value is reported as inactive: 42.7%.
In the case of OCCn1cc(-c2ccc3c(c2)CC/C3=N\O)c(-c2ccncc2)n1, the “percentage of GFP+” value is reported as inactive: 32.8%.
For COc1cc(OC)c(NC(=O)Nc2cc(C)on2)cc1Cl, the “percentage of GFP+” value was inactive: 47.9%.
For OCc1ccccc1O[C@@H]1O[C@H](CO)[C@@H](O)[C@H](O)[C@H]1O [Salicin], the “percentage of GFP+” value was inactive: 50.5%.
For N#CC(c1ccc(Cl)cc1)c1c(Cl)cc(-n2ncc(=O)[nH]c2=O)cc1Cl (centres undefined) [Diclazuril], the “percentage of GFP+” value was inactive: 33.8%.
CCCCc1ncc(/C=C(\Cc2cccs2)C(=O)O)n1Cc1ccc(C(=O)O)cc1 [Eprosartan] was tested, and the “percentage of GFP+” value was inactive: 50.3%.
O=c1ccc2ccccc2o1 was tested, and the “percentage of GFP+” value was inactive: 39.3%.
O=c1ccc2ccc(O)c(O)c2o1 [Daphnetin] was tested, and the “percentage of GFP+” value was inactive: 39.9%.
For Cc1nc(N)sc1-c1ccnc(Nc2ccc(N3CCOCC3)cc2)n1, the “percentage of GFP+” value was inactive: 40%.
With COc1ccc([C@H]2CNC(=O)C2)cc1OC1CCCC1 [(S)-Rolipram] the “percentage of GFP+” value was inactive: 42.2%.
For Cc1nc(C(=O)NCC(=O)O)c(O)c2ccc(Oc3ccccc3)cc12, the “percentage of GFP+” value was inactive: 43%.
With CC(C)n1c(/C=C/[C@@H](O)C[C@@H](O)CC(=O)O)c(-c2ccc(F)cc2)c2ccccc21 [Fluvastatin] the “percentage of GFP+” value was active: 19.7%.
For Cc1ccc(N(CC2=NCCN2)c2cccc(O)c2)cc1 [Phentolamine], the “percentage of GFP+” value was inactive: 45.6%.
In the case of O=c1cc(N2CCOCC2)oc2c(-c3cccc4c3sc3ccccc34)cccc12, the “percentage of GFP+” value is reported as inactive: 30%.
COc1cc(-c2cc(-c3cccc(O)c3)cnc2N)cc(OC)c1OC was tested, and the “percentage of GFP+” value was inactive: 48.2%.
For O=C(Nc1cc(C(F)(F)F)ccc1N1CCCCC1)c1ccncc1, the “percentage of GFP+” value was inactive: 39.9%.
Cc1cc(C)c2c(c1)[C@@H](N(Cc1cc(C(F)(F)F)cc(C(F)(F)F)c1)c1nnn(C)n1)CCCN2C[C@H]1CC[C@H](C(=O)O)CC1 [Evacetrapib] was tested, and the “percentage of GFP+” value was inactive: 44.9%.
With CO[C@H]1C[C@@H]2CC[C@@H](C)[C@@](O)(O2)C(=O)C(=O)N2CCCC[C@H]2C(=O)O[C@H]([C@H](C)C[C@@H]2CC[C@@H](O)[C@H](OC)C2)CC(=O)[C@H](C)/C=C(\C)[C@@H](O)[C@@H](OC)C(=O)[C@H](C)C[C@H](C)/C=C/C=C/C=C/1C [Rapamycin] the “percentage of GFP+” value was inactive: 37.8%.
c1ccc(NCc2ccc(CNc3ccccn3)cc2)nc1 was tested, and the “percentage of GFP+” value was inactive: 47.2%.
With CN1CCN(CCOc2cc(OC3CCOCC3)c3c(Nc4c(Cl)ccc5c4OCO5)ncnc3c2)CC1 [Saracatinib] the “percentage of GFP+” value was inactive: 46.2%.
Cc1cc(C)nc(NS(=O)(=O)c2ccc(N)cc2)n1 [Sulfamethazine] was tested, and the “percentage of GFP+” value was inactive: 54.2%.
With Cn1c(=O)cc(N2CCC[C@@H](N)C2)n(Cc2cc(F)ccc2C#N)c1=O [Trelagliptin] the “percentage of GFP+” value was inactive: 44.1%.
With O=c1cc(-c2ccc(O)c(O)c2)oc2cc(O)cc(O)c12 [Luteolin] the “percentage of GFP+” value was inactive: 47.1%.
In the case of CC(C)Oc1ccc(-c2cnc3c(-c4ccnc5ccccc45)cnn3c2)cc1, the “percentage of GFP+” value is reported as inactive: 43.3%.
For Cc1coc2c1C(=O)C(=O)c1c-2ccc2c(C)cccc12 [Tanshinone I], the “percentage of GFP+” value was inactive: 41.1%.
In the case of CN(C)CCCCC(=O)Nc1ccc(NC(=S)NC(=O)c2ccc(C(C)(C)C)cc2)cc1 [Tenovin-6], the “percentage of GFP+” value is reported as inactive: 43.9%.
